Results on 87 molecules are retold here after paper PMC4336329 (PLoS ONE, 2015).

Out of some 310,000 compounds screened, about 14,000 (4.5%) showed an effect of 50% or more. Effects have a minus sign here. This is one part of the list.
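Further: peak tail current of the secondary pulse compared with the same well before compound.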

Chain of human ether-à-go-go-related gene (hERG) potassium channel (Q12809 whole entry, looked up): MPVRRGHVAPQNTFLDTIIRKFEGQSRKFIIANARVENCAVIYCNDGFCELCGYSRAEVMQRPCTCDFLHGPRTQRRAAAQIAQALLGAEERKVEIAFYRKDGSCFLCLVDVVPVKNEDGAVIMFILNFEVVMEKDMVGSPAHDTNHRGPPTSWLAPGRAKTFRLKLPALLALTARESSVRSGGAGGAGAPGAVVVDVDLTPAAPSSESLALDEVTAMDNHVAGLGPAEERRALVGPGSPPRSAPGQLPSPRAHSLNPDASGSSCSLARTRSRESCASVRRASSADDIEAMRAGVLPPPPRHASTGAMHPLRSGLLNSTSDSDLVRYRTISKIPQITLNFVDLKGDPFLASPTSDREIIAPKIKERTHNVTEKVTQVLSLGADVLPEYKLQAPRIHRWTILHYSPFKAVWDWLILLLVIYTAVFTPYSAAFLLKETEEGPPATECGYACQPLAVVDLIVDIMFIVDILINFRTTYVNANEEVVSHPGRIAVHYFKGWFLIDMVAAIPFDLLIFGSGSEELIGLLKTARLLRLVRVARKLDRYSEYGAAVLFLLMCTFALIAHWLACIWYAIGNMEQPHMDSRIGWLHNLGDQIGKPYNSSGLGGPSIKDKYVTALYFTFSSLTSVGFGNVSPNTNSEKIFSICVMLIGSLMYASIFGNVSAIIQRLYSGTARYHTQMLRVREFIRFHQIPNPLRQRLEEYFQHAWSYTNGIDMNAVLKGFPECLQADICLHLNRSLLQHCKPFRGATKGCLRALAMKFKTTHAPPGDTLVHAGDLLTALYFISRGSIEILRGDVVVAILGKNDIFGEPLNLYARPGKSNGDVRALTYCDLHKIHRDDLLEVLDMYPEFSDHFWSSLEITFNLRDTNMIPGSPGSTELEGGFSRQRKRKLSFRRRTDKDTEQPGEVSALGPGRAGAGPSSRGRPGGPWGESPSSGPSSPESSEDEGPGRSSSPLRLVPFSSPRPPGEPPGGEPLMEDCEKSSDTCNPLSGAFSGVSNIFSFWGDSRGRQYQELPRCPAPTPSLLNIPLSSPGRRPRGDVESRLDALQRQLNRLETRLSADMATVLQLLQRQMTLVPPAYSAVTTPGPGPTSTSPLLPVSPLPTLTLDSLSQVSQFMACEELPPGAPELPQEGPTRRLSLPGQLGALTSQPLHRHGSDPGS

The assay concerns the target human ether-à-go-go-related gene (hERG) potassium channel (human, UniProt Q12809). In words: primary screen, population patch clamp on CHO cells stably expressing hERG.
`Cc1ccc(-c2cnn(-c3cccc(C(F)(F)F)c3)c2N)cc1`: the “hERG current change (%, negative = inhibition) at 10uM” value is -3.62%. In the case of `Brc1ccc(CN2CCN(Cc3c[nH]c4ccccc34)CC2)cc1.O=C(O)C(=O)O`, the “hERG current change (%, negative = inhibition) at 10uM” value was -63.8%. With `CCCCC1C(=O)CC[C@H]2[C@@H]1CC(=O)[C@@H]2C/C=C\CCCC(=O)O` (stereo partly drawn) the figure was 10.1%. With `Cn1c(SCC(=O)NC(C)(C)C)nnc1-c1ccc(C(C)(C)C)cc1` the figure was 4.2%. With `Nc1ncc2c(n1)CC(c1ccco1)CC2=O` (stereo not drawn) the figure was 14.3%; with `Cn1c(CCNC(=O)c2ccco2)nc2cc(NS(=O)(=O)c3ccccc3)ccc21`, -6.01%. As to `O=C1CN(C(=O)CNC(=O)c2cccc(Cl)c2)c2ccccc2N1`, the “hERG current change (%, negative = inhibition) at 10uM” value turned out to be 2.69%. With `Cc1ccc2c(c1)N(CC(=O)NCCc1ccc(Cl)cc1)C(=O)c1cccnc1O2` the figure was -38.9%; with `CC(=O)Nc1ccc(S(=O)(=O)N(CCCN2CCOCC2)Cc2cccs2)cc1.O=C(O)C(=O)O`, -20.9%; with `Cc1ccc(C)c(C(=O)C(C)OC(=O)c2cccn2C)c1` (stereo not drawn), -4.35%.

Turning to `CN(CC(=O)NC1CCCCCC1)S(=O)(=O)c1ccccc1`, the “hERG current change (%, negative = inhibition) at 10uM” value was -7.74%.

As for `CCOc1ccc(OCC)c(-c2c(=O)n(OCc3ccccc3C(=O)OC)c3ccccc3[n+]2[O-])c1`, the “hERG current change (%, negative = inhibition) at 10uM” value was -28.8%.

For the molecule `CC1(C)NC(=O)N(CC(=O)OCC(=O)Nc2cccc(S(N)(=O)=O)c2)C1=O`, the “hERG current change (%, negative = inhibition) at 10uM” value was 1.63%. With `Cc1csc(NC(=O)CSc2ccc(-c3ccccn3)nn2)n1` the figure was -73.6%; with `NS(=O)(=O)c1ccc(CNC(=O)CSc2nc3ccc(Cl)cc3[nH]2)cc1`, 18.9%; with `O=C(NNS(=O)(=O)c1ccccc1[N+](=O)[O-])c1cccc(Cl)c1`, 2.58%. With `CN1CCc2c(sc(NC(=O)Cc3ccccc3)c2C#N)C1.Cl` the figure was -7.24%; with `Cc1ccc(S(=O)(=O)N2CCC(C)CC2)cc1C(=O)NCCN1CCOCC1`, 11.4%; with `CN(C)CCCCCNCCCNC(=O)/C=N\O`, 9.07%.

Turning to `CC(C)c1csc(CN2CCN(Cc3ccccc3)C(CCO)C2)n1` (stereo not drawn), the “hERG current change (%, negative = inhibition) at 10uM” value is -26.3%. Turning to `COc1ccc2cc(C(=O)c3ccccc3)c(=O)oc2c1`, the “hERG current change (%, negative = inhibition) at 10uM” value is 9.44%. Take `CCc1ccc(-c2cc(C(=O)Nc3ccc(S(=O)(=O)NC(C)=O)cc3)c3ccccc3n2)cc1`: the “hERG current change (%, negative = inhibition) at 10uM” value is 4.85%. For `COc1ccc(N/C(=C(/C(Cl)=C(Cl)Cl)[N+](=O)[O-])n2nnc3ccccc32)cc1`, the “hERG current change (%, negative = inhibition) at 10uM” value is listed as 0.557%.

With `N/C(=N\c1nc(CSc2ccc(Cl)cc2)cc(=O)[nH]1)Nc1ccccc1C(F)(F)F`, the “hERG current change (%, negative = inhibition) at 10uM” value came out at 16.8%. With `CC(C)OC(=O)c1sc2nc3c(cc2c1N)C(=O)CCC3` the figure was 5%. With `CCN(CC)P(c1n(C)cc[n+]1C)N(CC)CC.[I-]` the figure was 10.6%; with `O=C(O)c1cccc(N/N=C/c2cc(Br)cc(Br)c2O)c1`, 18.9%; with `Cc1ccc(C(=O)Nc2ccccc2C(=O)O)cc1S(=O)(=O)NC1CCCCC1`, -15.2%. With `CC1CN(S(=O)(=O)c2cccc(C(=O)NN3CCN(C)CC3)c2)CC(C)O1.Cl` (stereo not drawn) the figure was 2.62%; with `CN(CC1CCN(CCc2cccc(C(F)(F)F)c2)CC1)C(=O)c1ccc(F)cc1F`, -69.9%; with `COc1ccc(S(=O)(=O)N2CCOC2CNC(=O)C(=O)NCc2ccccc2OC)cc1` (stereo not drawn), -7.74%. As for `CCOC(=O)c1cccc(NS(=O)(=O)c2c(C)[nH]c(=O)[nH]c2=O)c1`, the “hERG current change (%, negative = inhibition) at 10uM” value came to 4.38%.

For the molecule `Oc1ccc(-c2cnns2)c(O)c1`, the “hERG current change (%, negative = inhibition) at 10uM” value is reported as 13.9%. As for `Cc1cccc(NC(=O)C(C)N2C(=O)c3ccccc3S2(=O)=O)n1` (stereo not drawn), the “hERG current change (%, negative = inhibition) at 10uM” value was -15.9%. Consider `O=S(=O)(CCc1ccccc1)N1CCOCC1`, for which the “hERG current change (%, negative = inhibition) at 10uM” value is listed as 6.17%. With `CCN1C(N(C)CCc2cccs2)=N[C@@H](c2ccccc2)C(C(=O)OC)=C1C`, the “hERG current change (%, negative = inhibition) at 10uM” value is reported as -53.8%. On to `N#C/C(=C\c1c(N2CCCCCC2)nc2ccccn2c1=O)C(N)=O`, for which the “hERG current change (%, negative = inhibition) at 10uM” value amounted to 3.96%. With `CN(c1ccccc1)S(=O)(=O)c1ccc(NC(=O)C2CC2)cc1` the figure was 0.00628%. With `CN(C(=O)c1ccc(NC(=O)Cc2cccc(NC(=O)C3CCN(C(=O)c4ccccc4)CC3)c2)cc1)C1CCCC1` the figure was 5.6%; with `O=C(NCCC1=CCCCC1)C1CCN(c2nc3ccccc3o2)CC1`, -13.9%; with `O=C(O)C=C1CCN(c2ncc(C(F)(F)F)cc2Cl)CC1`, 14.5%. With `Cn1cc(CN2CCN(CCO)CC2)c(-c2ccc(Oc3ccccc3)cc2)n1`, the “hERG current change (%, negative = inhibition) at 10uM” value was -32.3%.

In the case of `Cn1c(=O)c2c(n(Cc3ccccc3)c1=O)NC(=O)C2CC(=O)NCc1cccc(Cl)c1` (stereo not drawn), the “hERG current change (%, negative = inhibition) at 10uM” value is -8.83%. With `O=C(c1ccc2c(=O)n(-c3ccccc3)c(=S)[nH]c2c1)N1CCCCC1` the figure was 14.7%.

On to `O=C(c1cccc(C(F)(F)F)c1)N1CCOc2ccccc21`, for which the “hERG current change (%, negative = inhibition) at 10uM” value was -6.95%. With `O=C(c1cc(Cl)ccc1[N+](=O)[O-])n1cnc2ccccc21` the figure was -11.9%; with `O=C(Nc1cccc([N+](=O)[O-])c1)c1ccc(CSc2ccccc2)cc1`, 3.55%; with `Cc1nn(Cc2ccc(C(=O)n3cccn3)o2)c(C)c1Br`, -14%.

Take `CCOC(=O)C1CCCNC1=O` (stereo not drawn): the “hERG current change (%, negative = inhibition) at 10uM” value is 14.8%. Take `COc1ccc(/C=N/N2CCN(C)CC2)cc1O`: the “hERG current change (%, negative = inhibition) at 10uM” value was 10.8%. With `OC(CNCCc1ccccc1)c1ccccc1` (stereo not drawn) the figure was -0.0558%; with `CCOC(=O)c1c(NC(=O)Nc2cccc(Cl)c2)sc(C)c1C`, -16.5%; with `COc1ccccc1OCCNc1cc(N2CCOCC2)ccc1[N+](=O)[O-]`, -16.6%. With `COC(=O)c1sccc1NC(=O)CN(C)NS(=O)(=O)c1ccc([N+](=O)[O-])cc1`, the “hERG current change (%, negative = inhibition) at 10uM” value was 2.53%. With `CCc1ccccc1NC(=O)CCN1C(=O)C2C3CCC(C3)C2C1=O` (stereo not drawn) the figure was 10.8%. In the case of `Oc1c(Cl)cccc1C=Nc1cc(C(F)(F)F)ccc1N1CCCC1`, the “hERG current change (%, negative = inhibition) at 10uM” value is on record as -5.58%. For the molecule `O=[N+]([O-])c1ccc(S(=O)(=O)N2CCC3(CC2)OCCN3S(=O)(=O)c2cccs2)cc1`, the “hERG current change (%, negative = inhibition) at 10uM” value is given as -50.4%. With `COc1ccc(CCNC(=O)CSc2nnc(CNC(=O)c3ccco3)o2)cc1OC` the figure was 0.33%; with `COc1ccc(C(=O)N(Cc2ccc(N(C)C)cc2)C2CCS(=O)(=O)C2)cc1` (stereo not drawn), -10.3%; with `COc1cccc2[nH]c3c(N4CCCC(C)C4)ncnc3c12` (stereo not drawn), 14.8%. With `O=C(NC(=S)NCc1nc2ccccc2[nH]1)c1ccccc1F` the figure was -15.1%; with `N#Cc1c(N)oc(-c2ccccc2)c1-c1ccccc1`, -5.02%. With `NC(=O)c1ccccc1N(Cc1ccccc1)S(=O)(=O)c1ccccc1` the figure was 10.7%. As for `COc1ccc(CN2C(=O)C(Cc3ccccc3)Nc3ncnc(N4CCOCC4)c32)cc1.O=C(O)C(F)(F)F` (stereo not drawn), the “hERG current change (%, negative = inhibition) at 10uM” value is given as -15.6%. On to `Cc1ncc([N+](=O)[O-])n1CC(=O)Nc1ccc(F)cc1`, for which the “hERG current change (%, negative = inhibition) at 10uM” value worked out at 1.56%. With `O=C(O)C12CC3CC(C1)CC(n1ncc(N4CCN(c5ccccc5)CC4)c(Cl)c1=O)(C3)C2` the figure was 14.2%. For the molecule `CCCOc1ccc2c3c(c(=O)oc2c1OCCC)CCC3`, the “hERG current change (%, negative = inhibition) at 10uM” value stood at 7.44%. For `CCN1CCN(C(=O)c2cc(COc3ccc4ncccc4c3)on2)CC1`, the “hERG current change (%, negative = inhibition) at 10uM” value is reported as 9.12%. With `Cc1ccc(N=Nc2ccc(O)c(P(=O)(c3ccccc3)c3ccccc3)c2)cc1` the figure was -42.7%; with `CCOC(=O)CN1C(=O)C(CC)Oc2ccc(Cl)cc21` (stereo not drawn), -7.7%; with `Cc1cccc(NC(=O)CN(C)S(=O)(=O)c2ccccc2)n1`, -3.97%.

Consider `O=C(O)c1cc(Br)ccn1`, for which the “hERG current change (%, negative = inhibition) at 10uM” value came to 8.43%. With `CCOC(=O)C1CCN(C(=O)c2ccc3snnc3c2)CC1` the figure was -15.6%; with `Fc1ccccc1NC(=S)NCc1ccc2c(c1)OCO2`, -4.33%; with `CC12CC(NC(=O)N1c1cccc(C(=O)N3CCN(c4ccccn4)CC3)c1)c1ccccc1O2` (stereo not drawn), -14.3%. With `Cc1ccc(CN2C(=O)CCC2C(=O)NCc2ccccc2Cl)cc1` (stereo not drawn) the figure was -18.6%. With `S=c1nc2ccccc2c2nc(-c3ccccc3)[nH]n12` the figure was 23.9%; with `O=C(Nc1cccc(F)c1)OC(CN1CCCCC1)C(F)(F)F` (stereo not drawn), -5.72%. For the molecule `COc1ccccc1NC(=O)N1CCc2[nH]c3ccc(F)cc3c2C1`, the “hERG current change (%, negative = inhibition) at 10uM” value was 3.61%. As to `COC(=O)C1(Cc2ccc(O)c(CC3OC3(C)C)c2)OC(=O)C(O)=C1c1ccc(O)cc1` (stereo not drawn), the “hERG current change (%, negative = inhibition) at 10uM” value is 8.92%. As for `Cc1ccc(S(=O)(=O)c2nc(Nc3nccs3)sc2Cl)cc1`, the “hERG current change (%, negative = inhibition) at 10uM” value amounted to 11.6%.

`CC1=NC(=O)C(N=Nc2cccc(C(=O)O)c2)N1c1ccccc1` (stereo not drawn): the “hERG current change (%, negative = inhibition) at 10uM” value turned out to be 27.7%.

In the case of `c1ccc(-c2cnc(CSc3ncnc4sccc34)o2)cc1`, the “hERG current change (%, negative = inhibition) at 10uM” value is reported as 7.1%. With `N#CCN(CC#N)C(=O)C1c2ccccc2Oc2ccccc21` the figure was 17.8%. With `COc1cccc(NC(=O)c2ccc(S(=O)(=O)NCc3cccnc3)cc2)c1` the figure was -0.62%; with `COc1ccc(NCC(=O)N/N=C/c2cc([N+](=O)[O-])ccc2N2CCCC2)cc1`, -7.82%.

On to `CCC(C)(C)n1nnnc1CN(Cc1cccs1)Cc1cc2cc(OC)ccc2[nH]c1=O`, for which the “hERG current change (%, negative = inhibition) at 10uM” value is recorded as -5.35%.
